Out of some 410,000 compounds screened, about 5,000 (1.2%) were called active. The inconclusive results got no clear call from the source; some entries with a clear call stand among them for comparison. Calls follow the shape of the dose curve; as a rule, active = well fitted inhibition curve with a large enough effect; inconclusive = small, poorly fitted or top-dose-only effect; inactive = no such curve, though single readings can be large or run the other way. Potencies beside an inconclusive call are fits to weak or partial responses and may not hold up.
Experiment: qHTS for Inhibitors of TGF-b; also: nearly all actives have a fitted effect of over 65% in size
Conditions: HepG2 CAGA-GFP TGF-b/SMAD3 reporter, GFP fluorescence, 18 h, TGF-beta stimulated, 500 pg/mL final; series mostly up to 46.1 µM; activity, negative = inhibition: at the top concentration
Procedure, shortened: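 Smad-responsive CAGA-GFP expression was quantified in HEPG2 cells exposed to compounds and 500 pg/mL final TGF-beta for 18 h at 37 degrees C; unstimulated wells defined full inhibition.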
% is scaled to controls: 0 for no effect and ±100 for the full control effect; potency is read from the fitted curve at half-maximal effect; tags tell the direction and shape of the fitted curve.

Compound	activity, negative = inhibition	Potency
C/C(=N\NC(=O)c1ccn(C)n1)c1cccc(NC(=O)c2ccc(C)s2)c1	inactive: 17.4%	–
CCN(CC(=O)NCc1ccc(F)cc1)CC(O)COCc1cccc(OC)c1 (stereo unspecified)	–	active: 12.6 µM
CCC(C(=O)N1CCC(C(N)=O)CC1)n1nc(C)n2c(cc3occc32)c1=O (stereo unspecified)	inactive: -3.82%	–
O=C(N/N=C/c1ccccc1)c1cc(=O)[nH]c2ccccc12	–	inconclusive: 0.112 µM [inhibitor, partial curve, poor fit]
CCc1ccc(S(=O)(=O)/N=C2\C=C(NS(=O)(=O)c3ccccc3)C(=O)c3ccccc32)cc1	–	inconclusive: 20 µM [inhibitor, single point]
CCn1ncc([C@@H]2C[C@H]3CN(Cc4ccccc4C)C(=O)[C@]34CCCN24)c1C	inactive: -22.6%	–
COc1ccc(-c2nc3ccc(C)cn3c2Cc2ccsc2)cc1OC	–	inconclusive: 22.4 µM [inhibitor, single point]
CCN(CCCNC(=O)CSc1cc(=O)n(CC)c2ccccc12)c1ccccc1	–	inconclusive: 35.5 µM [inhibitor, single point]
Cc1ccc(OCC(=O)NCc2n[nH]c(=O)c3ccccc23)cc1	inactive: -3.18%	–
O=c1oc2ccccc2c(O)c1C=Nc1cccnc1	–	inconclusive: 35.5 µM [inhibitor, single point]
COC(=O)C1=C(C(=O)OC)[C@]2([C@@H]3CC=CCN[C@@H](Cc4ccccc4)C(=O)N3Cc3ccccc3)C=C[C@H]1O2	–	inconclusive: 10 µM [inhibitor, partial curve, poor fit]
Cc1ccccc1OCC(=O)Nc1ccc2oc(-c3ccc(F)cc3)nc2c1	inactive: 2.05%	–
CC(=O)Nc1ccc(NC(=O)c2cc(-n3cnnc3)ccc2Cl)cc1	inactive: 8.8%	–
CCOc1ccccc1C1C(C(=O)Nc2ccccc2OC)=C(C)Nc2nnnn21 (stereo unspecified)	–	inconclusive: 4.47 µM [inhibitor, full curve, poor fit]
Cc1cc(NC(=O)CCc2ccc(C)o2)no1	–	inconclusive: 0.562 µM [inhibitor, full curve, poor fit]
COc1ccc(C#Cc2c(-c3ccccc3)n(C)c3ccccc23)cc1	–	inconclusive: 14.1 µM [inhibitor, single point]
C[C@H]1CN([C@@H](C)CO)C(=O)c2cccc(NC(=O)Nc3ccc(C(F)(F)F)cc3)c2O[C@@H]1CN(C)S(=O)(=O)c1ccc(Cl)cc1	–	inconclusive: 20 µM [inhibitor, partial curve, poor fit]
N#CC1=C(SCc2ccc(C#N)cc2)N=C(N)C(c2nc(-c3ccccc3)cs2)C12CCCCC2 (stereo unspecified)	–	inconclusive: 5.01 µM [inhibitor, full curve, poor fit]
O=C1N[C@@H](Cc2ccccc2)COC(=O)[C@H](Cc2ccc(F)cc2)C/C=C\C[C@H]1CC(=O)N(CCO)Cc1ccccc1	–	inconclusive: 15.8 µM [inhibitor, partial curve, poor fit]
CCc1ccc2[nH]c(=O)c(CN(Cc3ccco3)C(=S)NCC3CCCO3)cc2c1 (stereo unspecified)	–	inconclusive: 20 µM [inhibitor, partial curve, poor fit]
CCc1c(Cl)nc(N)nc1Nc1ccccc1C	–	inconclusive: 35.5 µM [inhibitor, single point]
CC(C)Oc1ccc(CNC(=O)CN2C(=O)CCn3nc(-c4cn(C)c5ccccc45)cc32)cc1	–	inconclusive: 35.5 µM [inhibitor, single point]

Compound	activity, negative = inhibition	Potency
COC(=O)C1=C(C)N(C)C(C)=C(C(=O)OC)C1c1ccsc1	–	inconclusive: 35.5 µM [inhibitor, partial curve, poor fit]
CCCCNC(=O)C1(C)CCN1Cc1cc(C)ccc1C (stereo unspecified)	–	inconclusive: 22.4 µM [inhibitor, single point]
COc1cc(C(=O)Nc2cccc(S(=O)(=O)NCc3ccco3)c2)cc(OC)c1OC	inactive: 12.8%	–
CC(C)=CCC/C(C)=C/CNC(=O)C[C@H]1C[C@H](C(=O)N2CCOCC2)[C@@]2(CCC3CCCC3)c3[nH]c4cc(-c5ccco5)ccc4c3CCN2C1=O	–	inconclusive: 5.01 µM [inhibitor, full curve, poor fit]
CC(=O)c1ccc(OCc2cc(C(=O)NC(C)CCn3cccn3)no2)cc1 (stereo unspecified)	–	inconclusive: 12.6 µM [inhibitor, single point]
COc1ccc2cc3c(N)nn(C(=O)Cc4ccccc4OC)c3nc2c1	–	inconclusive: 35.5 µM [inhibitor, single point]
O=C(N/N=C/c1ccc(OC(=O)c2cccs2)cc1)c1ccc(F)cc1	–	inconclusive: 6.31 µM [inhibitor, single point]
S=c1[nH]nc(-c2cccnc2)n1/N=C/C=C/c1ccco1	inactive: 8.44%	–
Cc1ccc(C)c(NC(=O)COC(=O)c2cccc3c2C(=O)c2ccccc2C3=O)c1	–	inconclusive: 4.47 µM [inhibitor, full curve, poor fit]
O=C(Nc1ccc(Oc2ccccc2)cc1)c1ccc(F)c(S(=O)(=O)N2CCN(c3cccc(Cl)c3)CC2)c1	inactive: -1.19%	–
CN(Cc1ccccc1)C(=O)c1ccc(Nc2nc(C(N)Cc3ccc(C(F)(F)F)cc3)cs2)nc1 (stereo unspecified)	–	inconclusive: 25.1 µM [inhibitor, single point]
COc1ccc(C2CC(C(F)(F)F)n3nc(C(=O)NCc4c(C)nn(C)c4C)c(Cl)c3N2)cc1 (stereo unspecified)	–	inconclusive: 12.6 µM [inhibitor, partial curve, poor fit]
CCCCOc1ccc(C(=O)NCC(c2ccc(Cl)cc2)N2CCOCC2)cc1 (stereo unspecified)	–	inconclusive: 11.2 µM [inhibitor, partial curve]
O=C(O)c1ccc([N+](=O)[O-])cc1Sc1ccsc1	–	inconclusive: 25.1 µM [inhibitor, single point]
O=C(CN1CCN(c2ccccc2Cl)CC1)NC1CCCc2ccccc21 (stereo unspecified)	–	inconclusive: 7.94 µM [inhibitor, partial curve, poor fit]
CCN(CC)CCCN(C(=O)c1ccc(Br)cc1)c1nc(-c2ccc(OC)cc2)cs1	–	inconclusive: 35.5 µM [inhibitor, single point]
CCSc1ncc(/C=N/Nc2ccccc2)n1C	inactive: 6.38%	–
CCOC(=O)c1ccc(N2C(=O)c3n[nH]c(-c4ccco4)c3C2c2ccc(OC)cc2OC)cc1 (stereo unspecified)	–	active: 15.8 µM
COc1ccc2c(CC(=O)Nc3ccc(OC)c(S(=O)(=O)N4CCOCC4)c3)coc2c1	inactive: -7.32%	–
O=C1OCCN1C(=O)[C@H]1[C@H](c2ccc(F)cc2)C(c2cccc(Cl)c2)=NN1c1ccccc1	–	inconclusive: 35.5 µM [inhibitor, single point]
COc1cccc(-c2nc(S(=O)(=O)c3ccc(C)cc3)c(N3CCCCCC3)o2)c1	inactive: -23.7%	–
O=C1c2ccccc2C(=O)c2c1cccc2N1CCN(Cc2ccccc2)CC1	–	inconclusive: 10 µM [inhibitor, partial curve, poor fit]

Compound	activity, negative = inhibition	Potency
O=C(Nc1cccnc1Cl)C1=NN(c2ccccc2)C(=O)CC1	inactive: -4.13%	–
Cc1cc(C)c(NC(=O)/C(=C/c2ccccc2)c2ccccc2)c(C)c1	–	inconclusive: 11.2 µM [inhibitor, partial curve, poor fit]
Cc1ccc(NC(=O)/C(=C\c2cccc([N+](=O)[O-])c2)NC(=O)c2cccs2)cc1	inactive: 4.32%	–
COc1ccc(/C=C/C(=O)Nc2ccc(C)cc2)cc1	inactive: 2.21%	–
Cn1cc(CN2CCC(O)CC2)c(-c2ccc(Oc3ccccc3)cc2)n1	–	inconclusive: 6.31 µM [inhibitor, single point]
CC(=O)N(C(C)=O)c1cccc(N(Cc2ccccc2)Cc2ccccc2)c1	–	inconclusive: 35.5 µM [inhibitor, single point]
NC(=O)C1CCN(C(=O)Nc2csc3ccccc23)CC1	inactive: -4.2%	–
Cc1ccc(NC(=O)Cc2ccc(NC(=O)N3CCCCc4ccccc43)cc2)cc1Cl	inactive: 7.24%	–
NNC(=O)c1cc(-c2ccc(N)cc2)nc2ccc(Br)cc12	–	inconclusive: 35.5 µM [inhibitor, single point]
COc1ccc(CC(=O)N2CCN(c3ccccn3)CC2)cc1	inactive: 7.3%	–
O=C(Cc1ccsc1)NCC(=O)Nc1ccccc1Br	inactive: -2.59%	–
CC(C)Oc1ccc(CNC(=O)c2cc3cccc4c3n2CC(C)S4)cc1 (stereo unspecified)	–	inconclusive: 31.6 µM [inhibitor, single point]
CC(Sc1nc2ccccc2[nH]1)C(=O)NC1CCCCC1C (stereo unspecified)	–	inconclusive: 20 µM [inhibitor, partial curve]
Cc1ccc(-c2onc(C)c2C)cc1S(=O)(=O)N1CCC(C)CC1	–	inconclusive: 11.2 µM [inhibitor, partial curve]
Cc1ccc(Cn2c(C(=O)Nc3ccc(Cl)cc3)cc3sccc32)cc1	–	inconclusive: 8.91 µM [inhibitor, partial curve, poor fit]
C[N+](C)(C)c1ccc(/C=C/c2ccnc3ccccc23)cc1	–	inconclusive: 3.16 µM [inhibitor, single point]
CCOc1cc([C@@H]2C[C@H]3CN(c4ccccc4)C(=O)[C@]34CCCN24)ccc1OC	–	inconclusive: 35.5 µM [inhibitor, single point]
CCN(CC)C(=O)[C@H]1C[C@H](CC(=O)NCCCN(C)C)C(=O)N2CCc3c([nH]c4cc(-c5ccco5)ccc34)[C@]12C	inactive: -0.594%	–
Cc1cccc2cc(CN(Cc3ccco3)C(=O)c3cccs3)c(=O)[nH]c12	inactive: 12.5%	–
COc1ccc(-c2cc(C(F)(F)F)n3ncc(C(=O)N(C)Cc4ccccc4)c3n2)cc1	inactive: -17.8%	–
Cc1cc(C(=O)CSc2nn3c(=O)c(C(C)(C)C)nnc3s2)c(C)n1C	inactive: -1.25%	–
Fc1cccc(Cl)c1CN1CCN(c2nc3ccccc3s2)CC1	inactive: -15.1%	–

Reference: PubChem BioAssay AID588855 (National Center for Advancing Translational Sciences (NCATS), 2011)
